{"source": "PubChem BioAssay AID602233", "about": "(National Center for Advancing Translational Sciences (NCATS), 2012)", "note": "Among all 380,000 compounds or so, about 170 (0.045%) were called active. Inconclusive means that the source gave no clear call. Such entries were picked first, then a sample of the others. Calls come from the whole dose curve; as a rule, active = well fitted inhibition curve with a large enough effect; inconclusive = small, poorly fitted or top-dose-only effect; inactive = no such curve, though single readings can be large or run the other way. Potencies of inconclusive entries are left out as doubtful fits. % is set by controls: 0 for no effect and ±100 for the full control effect; potency is the fitted concentration of half-maximal effect; tags give direction and shape of the fitted curve."}
{"target": "Phosphoglycerate kinase, glycosomal (Trypanosoma brucei brucei) (UniProt P07378)", "assay": "qHTS Assay to Find Inhibitors of Phosphoglycerate Kinase; note: nearly all actives have a fitted effect of over 60% in size", "conditions": "PGK/GAPDH coupled, Kinase-Glo luminescence, 60 min; series mostly up to 57.5 µM; activity change, negative = inhibition: at the top concentration", "how_it_was_run": "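Recombinant glycosomal PGK reaction used 1,3-bisphosphoglycerate generated in-well by GAPDH (100nM final) in 100mM TEA pH 7.6, 5mM MgCl2, 0.01% Tween-20. After 60 minutes at room temperature, ATP was read by Kinase-Glo Plus luminescence end-point.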"}
{"smiles": "CC1CCCCC1NS(=O)(=O)CCNC(=O)c1ccc2c(c1)OCO2", "note": "(stereo not drawn)", "activity change, negative = inhibition": "inactive: 1.94%"}
{"smiles": "N#Cc1c(SCc2c(Cl)cccc2Cl)nc(N)[nH]c1=S", "activity change, negative = inhibition": "inactive: -2.85%"}
{"smiles": "COc1cccc(/C=N/NC(=O)c2cc3cc([N+](=O)[O-])ccc3s2)c1O", "Potency": "inconclusive [inhibitor, full curve, poor fit]"}
{"smiles": "Cc1ccc(C)n1/N=C1/NC(=O)CS1", "Potency": "inconclusive [inhibitor, partial curve, poor fit]"}
{"smiles": "Cc1ccc(C=C2C(=O)c3ccccc3C2=O)s1", "Potency": "inconclusive [inhibitor, partial curve, poor fit]"}
{"smiles": "O=Cc1ccccc1OCc1ccc2c(c1)OCO2", "Potency": "inconclusive [inhibitor, partial curve, poor fit]"}
{"smiles": "Cc1nc(-c2ccc(NC(=O)c3ccccc3)cc2)cs1", "Potency": "inconclusive [inhibitor, single point]"}
{"smiles": "Nc1ccc2nc3c(=O)[nH]c(=S)[nH]c3nc2c1", "Potency": "active: 2.51 µM"}
{"smiles": "Cc1cc(C)c(CN2CCN(C(=O)Cn3cnc4c(OCc5ccccc5)ncnc43)CC2)c(C)c1", "outcome": "inactive"}
{"smiles": "Cc1nn2cc(-c3ccccc3)nc2s1", "Potency": "inconclusive [inhibitor, single point]"}
{"smiles": "CC(=O)OCC1=C(C(=O)O)N2C(=O)C(NC(=O)c3ccc(COc4cccc(Cl)c4Cl)o3)C2SC1", "note": "(stereo not drawn)", "Potency": "inconclusive [inhibitor, single point]"}
{"smiles": "Cc1cccc(C(=O)Nc2sc(-c3ccccc3)cc2C(=O)O)c1", "Potency": "inconclusive [inhibitor, partial curve, poor fit]"}
{"smiles": "O=C(O)c1cc(/C=C/C(=O)c2cc(F)ccc2O)c2c(c1)COCO2", "Potency": "inconclusive [inhibitor, single point]"}
{"smiles": "O=C(O)c1cccc(-n2cccc2/C=C2/SC(=O)N(CC(=O)N3CCCC3)C2=O)c1", "Potency": "inconclusive [inhibitor, partial curve, poor fit]"}
{"smiles": "COc1ccc(OC)c(-c2c3cc(O)c(=O)cc-3oc3cc(O)c(O)cc23)c1", "Potency": "inconclusive [inhibitor, full curve]"}
{"smiles": "O=C(CCNC(=O)c1ccco1)Nc1ccc(Cl)cc1F", "Potency": "inconclusive [inhibitor, single point]"}
{"smiles": "CN(C)/C=C/C=C1C(=O)CCCC1=O", "Potency": "inconclusive [inhibitor, single point]"}
{"smiles": "O=C(CNS(=O)(=O)c1c(Cl)cccc1Cl)OCC(=O)c1ccc[nH]1", "activity change, negative = inhibition": "inactive: -13.2%"}
{"smiles": "O=C(O)CN1C(=O)/C(=C\\c2cc(Br)ccc2OCc2ccc([N+](=O)[O-])cc2)SC1=S", "Potency": "inconclusive [inhibitor, single point]"}
{"smiles": "CN(c1ccccc1)c1ccc(/C=C(/CCC(=O)O)c2nc3ccccc3s2)cc1[N+](=O)[O-]", "Potency": "inconclusive [inhibitor, partial curve]"}
{"smiles": "COc1ccccc1NC(=O)COC(=O)c1cc2c(s1)CCC2", "Potency": "inconclusive [inhibitor, single point]"}
{"smiles": "COc1ccc(CC(=O)NCC(c2cccs2)S(=O)(=O)c2ccc(Cl)cc2)cc1", "note": "(stereo not drawn)", "Potency": "active: 3.16 µM"}
{"smiles": "CCOC(=O)c1cc(-c2ccc(N3CCOCC3)cc2)nn1-c1ccccc1C(=O)O", "Potency": "inconclusive [inhibitor, partial curve]"}
{"smiles": "CCOc1ccc(CCNC(=O)c2ccc(-c3nc(COc4ccc(C)cc4)c(C)o3)cc2)cc1", "activity change, negative = inhibition": "inactive: 8.81%"}
{"smiles": "O=C(Nc1ccccn1)c1onc2c1CCCC2", "Potency": "inconclusive [inhibitor, partial curve, poor fit]"}
{"smiles": "Cc1cc(Nc2ccc3c(c2)OCCO3)c2cccc(C)c2n1", "activity change, negative = inhibition": "inactive: 9.01%"}
{"smiles": "Cc1cccc(Cn2cnc3c(sc4nc(C)cc(C)c43)c2=O)c1", "activity change, negative = inhibition": "inactive: -6.34%"}
{"smiles": "Cc1ccnc2nc(C(=O)Nc3ccc(N4CCOCC4)cc3)nn12", "Potency": "inconclusive [inhibitor, single point]"}
{"smiles": "O=C(COC(=O)c1cccc(S(=O)(=O)N2CCc3ccccc3C2)c1)NCc1ccco1", "activity change, negative = inhibition": "inactive: -1.12%"}
{"smiles": "C=CCc1cccc2cc(C(=O)Nc3ccc(S(=O)(=O)Nc4nnc(CC)s4)cc3)c(=O)oc12", "Potency": "inconclusive [inhibitor, single point]"}
{"smiles": "Cc1c(Cc2ccccc2)c(=O)oc2c(O)c(O)ccc12", "Potency": "inconclusive [inhibitor, single point]"}
{"smiles": "O=C(c1cc(C(=O)c2ccco2)cc(C(=O)c2ccco2)c1)c1ccco1", "activity change, negative = inhibition": "inactive: -2.34%"}
{"smiles": "Cc1c(N=Cc2cc(Br)cc(Br)c2O)cccc1C(=O)O", "Potency": "inconclusive [inhibitor, partial curve, poor fit]"}
{"smiles": "COc1cccc(/C=N/Nc2nccnc2Cl)c1O", "Potency": "inconclusive [inhibitor, partial curve, poor fit]"}
{"smiles": "O=C(O)c1cc(O)c2c(c1)C(=O)c1cc(O)cc(O)c1C2=O", "Potency": "inconclusive [inhibitor, partial curve, poor fit]"}
{"smiles": "CNC(=S)N1N=C(c2ccc(C)cc2)CC1c1ccc(OC)cc1", "note": "(stereo not drawn)", "activity change, negative = inhibition": "inactive: -1.54%"}
{"smiles": "COCCCn1c(Cc2csc(Nc3cccc(Cl)c3)n2)nnc1SCC(=O)OC1CCCCC1", "Potency": "inconclusive [inhibitor, partial curve]"}
{"smiles": "COc1ccccc1C(=O)Nc1ccccc1OCc1cc(=O)n2cc(C)sc2n1", "Potency": "inconclusive [inhibitor, partial curve, poor fit]"}
{"smiles": "O=C(O)c1ccc(-n2cc(-c3cc4ccccc4oc3=O)[nH]c2=S)cc1", "Potency": "inconclusive [inhibitor, single point]"}
{"smiles": "O=C(CCS(=O)(=O)c1ccc(Br)cc1)NCCc1ccccc1", "Potency": "inconclusive [inhibitor, partial curve, poor fit]"}
{"smiles": "Cc1occc1-c1nnc(SCC(=O)Nc2ccccc2N2CCCCC2)n1C", "Potency": "inconclusive [inhibitor, single point]"}
{"smiles": "CN=c1scc(-c2ccccc2F)n1/N=C/c1ccc(O)c(O)c1O", "Potency": "inconclusive [inhibitor, partial curve, poor fit]"}
{"smiles": "NNC(=O)c1cc(-c2cccs2)nc2ccccc12", "outcome": "inactive"}
{"smiles": "CC(C)CN1C(=O)c2ccc(NC(=O)Cc3ccccc3)cc2C1=O", "Potency": "inconclusive [inhibitor, partial curve, poor fit]"}
{"smiles": "Nc1cc2sc(-c3ccc(C(=O)O)cc3)nc2cc1Cl", "Potency": "inconclusive [inhibitor, partial curve, poor fit]"}
{"smiles": "COC(=O)c1ccc(COc2ccc(/C=N/Nc3cccc(C(=O)O)c3)cc2)cc1", "Potency": "inconclusive [inhibitor, single point]"}
{"smiles": "COC(=O)c1cc(C)nc2c1C(=O)C(=O)C=C2N1CCOCC1", "Potency": "inconclusive [inhibitor, full curve, poor fit]"}
{"smiles": "O=C(CN1C(=O)/C(=C2/SC(=S)N(CCS(=O)(=O)O)C2=O)c2ccccc21)Nc1cccc(C(F)(F)F)c1", "Potency": "inconclusive [inhibitor, partial curve, poor fit]"}
{"smiles": "Cc1ccc(NC(=S)NNc2ccc(C(=O)O)cc2[N+](=O)[O-])cc1C", "Potency": "inconclusive [inhibitor, partial curve, poor fit]"}
{"smiles": "O=C1/C(=C/c2ccco2)SC(=S)N1CC1CCCO1", "note": "(stereo not drawn)", "activity change, negative = inhibition": "inactive: -15.8%"}
{"smiles": "S=c1[nH]c2ccc(Cl)cc2[nH]1", "activity change, negative = inhibition": "inactive: -7.02%"}
{"smiles": "COCCCNC(=O)C1CC(=O)N(CCc2ccc(OC)c(OC)c2)C1", "note": "(stereo not drawn)", "activity change, negative = inhibition": "inactive: -16%"}
{"smiles": "CCN(CC)S(=O)(=O)c1ccc(N2CCOCC2)c(NC(=O)c2cc3ccccc3oc2=O)c1", "activity change, negative = inhibition": "inactive: 3.49%"}
{"smiles": "CN=c1scc(-c2cccs2)n1/N=C/c1ccccc1O", "activity change, negative = inhibition": "inactive: -7.97%"}
{"smiles": "CCCCCCCC[n+]1cccc2c3ccccc3ccc21", "activity change, negative = inhibition": "inactive: 0.215%"}
{"smiles": "COc1cc(/C=C(\\C#N)C(=O)c2ccc(O)c(O)c2)cc(I)c1O", "Potency": "inconclusive [inhibitor, partial curve, poor fit]"}
{"smiles": "COc1ccc(C(=O)Nc2nc3ccccc3s2)c(OC)c1", "Potency": "inconclusive [inhibitor, partial curve, poor fit]"}
{"smiles": "COc1ccccc1NC(=O)Nc1ccc(-n2ccc(C(F)(F)F)n2)cc1", "activity change, negative = inhibition": "inactive: -8.13%"}
{"smiles": "O=C(O)CCNc1cc(N2CCN(C(=O)c3ccco3)CC2)c2noc3c2c1C(=O)c1ccccc1-3", "Potency": "inconclusive [inhibitor, partial curve]"}
{"smiles": "CCc1ccc(Nc2nc(N3CCOCC3)nc(N3CCOCC3)n2)cc1", "outcome": "inactive"}
{"smiles": "O=C1CC(c2ccco2)CC(O)=C1C=Nc1cc(Cl)ccc1O", "note": "(stereo not drawn)", "Potency": "inconclusive [inhibitor, single point]"}
{"smiles": "CC(C)(C)c1ccc(S(=O)(=O)c2cnc(SCC(=O)Nc3ccc(F)c(Cl)c3)[nH]c2=O)cc1", "Potency": "inconclusive [inhibitor, single point]"}
{"smiles": "CCOc1cc(/C=C(/C#N)C(=O)Nc2ccc(OC)cc2)ccc1OCc1ccc(C(=O)O)cc1", "Potency": "inconclusive [inhibitor, single point]"}
{"smiles": "CCCCSc1nnc(-c2ccc(C)cc2)o1", "Potency": "inconclusive [inhibitor, single point]"}
{"smiles": "CNc1oc(Cc2cccc3ccccc23)nc1C#N", "activity change, negative = inhibition": "inactive: -4.65%"}
{"smiles": "CC1CCN(S(=O)(=O)c2ccc3nc(N4CCN(c5ccccc5)CC4)ccc3c2)CC1", "Potency": "inconclusive [inhibitor, single point]"}
{"smiles": "O=[N+]([O-])c1cccc(Oc2cnccn2)c1", "Potency": "inconclusive [inhibitor, partial curve, poor fit]"}
{"smiles": "Cc1cc(C(=O)NCc2ccco2)c2ccccc2n1", "activity change, negative = inhibition": "inactive: -3.72%"}
